B1: LINE1-full (parent)
chain: UACGUAGGUGGUUUUCCCCUGAUAGUGCUAAGGGGGCCUGGAAGUUUGGACUGGGCAGAGCUCAACACAGCGUGGCAAAGUGGCUGUGGCUAGACUGCCUCUCUGGAUUCCUCGUCACUCAGCAGGGCAUCUCUGAGAGAAAUGCC

The values that follow come from the RNAGym collection of RNA variant scans (doi:10.7554/elife.90254).

The source gives no read counts; variants with many changes may rest on few reads.

In this data set the parent is B1. As to the kind of experiment: self-cleavage, relative activity (ratio to wild type); higher = more cleavage; in vitro, sequencing; the parent is a self-cleaving ribozyme.
Regarding A107G U132A A140U, the self-cleavage stood at 1.72.
Regarding U96A G97U U102C A121G, the self-cleavage was 0.
Under U91C U100C A138G stands 0.69.
For A92G U100C A121G, the self-cleavage amounted to 0.
For the variant A94G U108A U115A, the self-cleavage worked out at 0.17.
With U104A A121U A124U U143G, the self-cleavage amounted to 1.9.
For the variant U104A C118U U132C A138U A141G, the self-cleavage was determined as 2.73.
As for U96C A129G A141U, the self-cleavage is 0.26.
In the case of A92U U96C U109A A140G, the self-cleavage was 0.
The same measure for G93U U100C A129G: 0.23; for G83A A141G A142G: 1.19; for U96C U134A A136G: 0.1.
As for U85A A107U U134A, the self-cleavage came out at 0.1.
The same measure for A94U U115A A141U: 0.38; for U87A U109A U143C: 0.15; for C90A A94G G127A: 0.03.
For the variant U91C A129G U134A, the self-cleavage was found to be 0.5.
The same measure for U91C U102C C103U A129G: 0.77; for U96C U130C A140G A142G: 1.23; for U102A U112C U130A A141G: 1.75.
Regarding G88A U112C A124G, the self-cleavage worked out at 0.08.
For C84U U104C A117U U130C, the self-cleavage stood at 0.18.
For A94U U100C U104A, the self-cleavage worked out at 0.39.
Regarding U100C U112C A142G, the self-cleavage came out at 1.91.
Turning to A94G C131A G139A, the self-cleavage was 0.61.
As to G105U C123U A142G, the self-cleavage was found to be 1.21.
For U87C A124U A129G, the self-cleavage was 0.
For U85C U102C A121G, the self-cleavage was 0.
Consider C90U U91C C133U A140G, for which the self-cleavage is 0.06.
As to U81A U112C A141G, the self-cleavage came out at 2.04.
On to A94G U119C U143C, for which the self-cleavage is 0.5.
Turning to U81C A94U U100C A124U, the self-cleavage came out at 0.77.
The same measure for U87A U134C A138G: 0.05; for U87C U108C A142U: 0.13; for G86U A92G A136G: 0.07.
As for U91A A94C C120U, the self-cleavage stood at 0.03.
Turning to U81C U108A U143C, the self-cleavage is 0.92.
With C95U U119A A121U, the self-cleavage was 0.13.
The same measure for U100C U102C U108C C123U: 2.12.
Consider A94U U100A A138G, for which the self-cleavage is 0.23.
Under A94G U109A G114A stands 0.15; under C103A C128A A141C, 1.08; under G88A G122A U143C, 0.08.
As to A92U U115C A117G U143A, the self-cleavage came out at 0.
On to U96C U102C U143C, for which the self-cleavage is 0.09.
A92G U104C U115C: the self-cleavage was determined as 0.
Turning to A107G U115A A129U, the self-cleavage was 1.69.
As to U102C U108C A141G, the self-cleavage came out at 1.11.
As to A92C U96A A121U C128U, the self-cleavage worked out at 0.03.
As to C84U A107G A129C, the self-cleavage amounted to 0.22.
Take U81G U91C A124G: the self-cleavage was found to be 1.02.
For the variant U102C U112A A117G, the self-cleavage amounted to 0.
U108C U119A U134A: the self-cleavage was 0.5.
With A92G G114A A121G A141G, the self-cleavage was determined as 0.11.
As to U104C U112A U134C A140G, the self-cleavage is 1.41.
Under A92G A107U A140U stands 0.11; under U96C U112C G126U C145U, 0.08; under U85C A92U U134C, 0.3.
Under U104A C110U A121G stands 1.11; under U85A U119C A142G U143A, 0.
As to C98G C111U C120U, the self-cleavage is 0.11.
Under G82A U96C G114A U132C stands 0.05; under U100C U104A U143C, 1.53.
Under A94G G106A U132C stands 0.2.
Take U96A U132C A136U: the self-cleavage was found to be 0.37.
Under A107G U112A C123U stands 1.16; under G93A U132C A141G, 0.
Under A92G U96C A124G C131G stands 0; under U108C G137U A141G, 0.76; under U81A U115C C123A, 2.42.
Take U81C A94G G105U G114A: the self-cleavage turned out to be 0.18.
Consider U109A U132A A138C, for which the self-cleavage stood at 0.
The same measure for U104C C116U A142G: 1.65; for U81G U91A U108C: 1.84.
Under U85C A107G U143A stands 0.16.
Take U109C A121G U132C: the self-cleavage is 0.
Under U87A A107U U112A stands 0.1; under U87G U119C A136G A140G, 1.15.
Consider A92U U112C C145U, for which the self-cleavage is 0.49.
U87C A94U A142G U143C: the self-cleavage is 0.36.
As for C98U U112C A138G A142G, the self-cleavage was determined as 0.3.
With U91C A117G G125A, the self-cleavage came to 0.71.
Take U96C A140G A141G A142G: the self-cleavage was found to be 0.
Under G93A U102C A138G stands 0.02; under U85A A107U U130C, 0.09.
With U87A A121G A140G U143C, the self-cleavage is 0.
With A92U U132C A138G, the self-cleavage is 0.17.
Regarding U81C U100C A117C, the self-cleavage turned out to be 0.
Under C99G U104C U108C stands 1.47; under U87A U108C U119C, 0.09; under U91A U130C G139A, 1.13.
Consider U85C A92U A124G A142G, for which the self-cleavage turned out to be 0.
Consider U96C A138G G139A, for which the self-cleavage is 0.09.
The same measure for U109A U119C U130C: 2.39; for U102A U134C A136U A140G: 2.53; for U81C U87C G88A: 0.14.
As to G82A U100A A117G, the self-cleavage amounted to 0.67.
G82A U91C A138G: the self-cleavage was 1.11.
For the variant A107U A121G A140G, the self-cleavage amounted to 1.79.
Take U87C A94G C98U A117G: the self-cleavage stood at 0.07.
In the case of A107U U109A A124U A136G, the self-cleavage is 2.29.
G86A U100A U104C A124G U132C: the self-cleavage stood at 0.03.
With A107U A136G A141G A142G, the self-cleavage was determined as 0.
As to A94U U96A A138G, the self-cleavage stood at 0.11.
Consider G83A U85A A129G, for which the self-cleavage is 0.06.
For A92G G125A U130C, the self-cleavage came to 0.35.
Consider C84U U104C A136G, for which the self-cleavage amounted to 0.19.
The same measure for U100C U104G G114A: 0.59; for U91C U119A U143C: 0.82.
For C90A A94U U96C A140C, the self-cleavage was 0.05.
In the case of U81A U112A U119C G127C A141G, the self-cleavage was 2.91.
The same measure for G83C U130C U143C: 1.52; for A92G U115C C118A: 0; for G106U C123U A129G: 0.
Under U91C U112C A140G stands 0.83; under A94G U132C A141G, 0.54.
On to G88A A107G A124G A141G, for which the self-cleavage stood at 0.07.
On to U85C U115C A117U A141G, for which the self-cleavage turned out to be 0.42.
Take G97A G126U A129G A136G: the self-cleavage turned out to be 0.35.
Under A107U U119C A141U stands 2.33.
With U85C U115C A121G, the self-cleavage is 0.
As to U102C U119A A129C, the self-cleavage was 1.27.
Under C103U A136G U143C stands 1.64; under U85C U108C A121C, 0.
Regarding U85A U112A A136G, the self-cleavage worked out at 0.01.
As for U85A C95U A117G A141G, the self-cleavage came out at 0.09.
For U104A U109A U132C C145A, the self-cleavage turned out to be 0.92.
Turning to U100C A124G A141G, the self-cleavage is 0.98.
As to U104C A129G U134A, the self-cleavage was 1.72.
Turning to U81C A129U A138U, the self-cleavage is 1.19.
As to G82A U87C U130A, the self-cleavage was 0.22.
On to U87C A117U A138U, for which the self-cleavage was found to be 0.24.
Under U102C U115A G125U U143C stands 0.74; under U104A A129G A141G, 1.7; under A94G U96G U112A A136G, 0.39.
Take U87A U119C U143C: the self-cleavage was 0.11.
Under U108C U115G A140U stands 0; under U96C A121G A129U A142G, 0.11.
On to A92G C131G U143C, for which the self-cleavage was 0.13.
Under U87A A140G U143C stands 0.06.
With G83A U85C A124C, the self-cleavage came out at 0.03.
For G93U A124U A142G, the self-cleavage is 0.03.
Take G97A A107G A141G: the self-cleavage was found to be 0.09.
Under U87C A121G C146U stands 0; under U104C U119C A142G, 2.71.
In the case of U102A U115C A142G, the self-cleavage was determined as 1.2.
Regarding U96A A129G A140G, the self-cleavage turned out to be 0.
Under U100G U115A A140U stands 1.45; under G93A A140G U143C, 0.07.
For A94G U134G A140G, the self-cleavage worked out at 0.17.
For the variant U102C U115A A121C, the self-cleavage worked out at 1.53.
With A107G A121U U134A, the self-cleavage came to 0.66.
Turning to U102C U109C U132C C145U, the self-cleavage amounted to 1.2.
As for U104C A138U A141G, the self-cleavage was found to be 2.64.
With G88C U132C U134C, the self-cleavage turned out to be 0.07.
As to G97A C133G A138G, the self-cleavage amounted to 0.49.
Take U91C A107G A136G: the self-cleavage turned out to be 0.59.
The same measure for A94U G106A U130A C131A A136U: 0.34.
For U91A A92G A124U A129G, the self-cleavage came out at 0.08.
Turning to U100C U115A G135A, the self-cleavage worked out at 2.79.
Under U100C U102C U115A U132C stands 2; under U91A U102A A124G U134A, 0.63; under U85C C98U A142G, 0.04.
As to U81C G114A U130A, the self-cleavage was found to be 1.88.
In the case of U85A A140G A141G, the self-cleavage worked out at 0.07.
In the case of U96C U102A U109C, the self-cleavage was 0.14.
As for U96C A117U C118A U143A, the self-cleavage was determined as 0.05.
